# Reference: the supplement of paper PMC7125110
# Variants at the floor of the assay are shown more often than the library holds them.
# B1: glmS ribozyme (parent)
# chain: AUAAAAGCGCCAGAACUACAGAAAUGUAGUUGACGAGGAGGAGGUUUAUCGAAUUUUCGGCGGAUGCCUCCAAA
# Tests used:
# Conditions in all cases: with glucosamine-6-phosphate
# glucosamine-6-phosphate [1] = variants of: B1; assay: self-cleavage kobs at 40 uM GlcN6P; higher = faster cleavage; RNA array
# Summary of the method: (§1)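 Tiles of sequenced MiSeq chips were imaged over ~14 h at 37 °C. On them, barcoded ribozyme variants had been transcribed in situ by E. coli RNA polymerase and were tracked via a hybridised Cy3 probe while glucosamine-6-phosphate (40 μM to 10 mM) in HEPES/KCl/Mg(OAc)2 buffer flowed in. Per-tile medians, normalised to baseline and to non-cleaving reference variants, were fit to one- or two-exponential decays for kobs, and weighted Michaelis–Menten fits gave kcat and KM.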
# glucosamine-6-phosphate [2] = variants of: B1; assay: self-cleavage kobs at 2500 uM GlcN6P; higher = faster cleavage; RNA array
# Summary of the method: as §1
# glucosamine-6-phosphate [3] = variants of: B1; assay: self-cleavage kobs at 10000 uM GlcN6P; higher = faster cleavage; RNA array
# Summary of the method: as §1
# glucosamine-6-phosphate [4] = variants of: B1; assay: self-cleavage kobs at 160 uM GlcN6P; higher = faster cleavage; RNA array
# Summary of the method: as §1
# glucosamine-6-phosphate [5] = variants of: B1; assay: self-cleavage kobs at 640 uM GlcN6P; higher = faster cleavage; RNA array
# Summary of the method: as §1
variant,measurement,setting,value
AUAAAACCGCCAGAACUACAGAAAUGUAGUUGACUAGGAGGAGGUUUAUCGAAGUUUCGGCGGAUGCCUCCAAA,self-cleavage kobs at 40 uM GlcN6P,glucosamine-6-phosphate [1],< 1e-05 s⁻¹
same,self-cleavage kobs at 2500 uM GlcN6P,glucosamine-6-phosphate [2],< 1e-05 s⁻¹
same,self-cleavage kobs at 10000 uM GlcN6P,glucosamine-6-phosphate [3],< 1e-05 s⁻¹
AUAAAACCGCCAGAACUACAGAAAUGUAGUUGACGACGAGGAGGUUUAUCGAAUUUUCGGCGGAUGCCUCCAAA,self-cleavage kobs at 40 uM GlcN6P,glucosamine-6-phosphate [1],< 1e-05 s⁻¹
same,self-cleavage kobs at 2500 uM GlcN6P,glucosamine-6-phosphate [2],< 1e-05 s⁻¹
same,self-cleavage kobs at 10000 uM GlcN6P,glucosamine-6-phosphate [3],< 1e-05 s⁻¹
AUAAAACCGCCAGAACUACAGAAAUGUAGUUGACGAUGAGGAGGUUUAUCGAAUUUUCGGCGGAUGGCUCCAAA,self-cleavage kobs at 40 uM GlcN6P,glucosamine-6-phosphate [1],< 1e-05 s⁻¹
AUAAAACCGCCAGAACUACAGAAAUGUAGUUGACGAGAAGGAGGUUUAUCGAAUUUUCGGCGGAUGCCUCCAAA,self-cleavage kobs at 40 uM GlcN6P,glucosamine-6-phosphate [1],< 1e-05 s⁻¹
same,self-cleavage kobs at 160 uM GlcN6P,glucosamine-6-phosphate [4],< 1e-05 s⁻¹
AUAAAACCGCCAGAACUACAGAAAUGUAGUUGACGAGGAGUAGGUUUAUCGAAUUUUCGGCGGAUGCCUCCAAA,self-cleavage kobs at 40 uM GlcN6P,glucosamine-6-phosphate [1],< 1e-05 s⁻¹
same,self-cleavage kobs at 160 uM GlcN6P,glucosamine-6-phosphate [4],< 1e-05 s⁻¹
same,self-cleavage kobs at 2500 uM GlcN6P,glucosamine-6-phosphate [2],< 1e-05 s⁻¹
same,self-cleavage kobs at 10000 uM GlcN6P,glucosamine-6-phosphate [3],< 1e-05 s⁻¹
AUAAAACCGCCAGAACUACAGAAAUGUAGUUGACGAGGAGGAAGUUUAUCGAAUUUUCGGCGGAUGCCCCCAAA,self-cleavage kobs at 40 uM GlcN6P,glucosamine-6-phosphate [1],< 1e-05 s⁻¹
same,self-cleavage kobs at 10000 uM GlcN6P,glucosamine-6-phosphate [3],< 1e-05 s⁻¹
AUAAAACCGCCAGAACUACAGAAAUGUAGUUGACGAGGAGGAGAUUUAUCGAAUUUUCGGCGGAUGCCUCCAAA,self-cleavage kobs at 40 uM GlcN6P,glucosamine-6-phosphate [1],< 1e-05 s⁻¹
same,self-cleavage kobs at 640 uM GlcN6P,glucosamine-6-phosphate [5],< 1e-05 s⁻¹
same,self-cleavage kobs at 160 uM GlcN6P,glucosamine-6-phosphate [4],< 1e-05 s⁻¹
same,self-cleavage kobs at 2500 uM GlcN6P,glucosamine-6-phosphate [2],< 1e-05 s⁻¹
same,self-cleavage kobs at 10000 uM GlcN6P,glucosamine-6-phosphate [3],< 1e-05 s⁻¹
AUAAAACCGCCAGAACUACAGAAAUGUAGUUGACGAGGAGGAGUUUUAUCGAAUUUUCGGCGGAUGCCUCCAAA,self-cleavage kobs at 40 uM GlcN6P,glucosamine-6-phosphate [1],< 1e-05 s⁻¹
same,self-cleavage kobs at 10000 uM GlcN6P,glucosamine-6-phosphate [3],< 1e-05 s⁻¹
AUAAAACCGCCAGAACUACAGAAAUGUAGUUGACGAGGAGGAGGUUUAUCCAAUUUUCGGCGGAUGCCUCCAAA,self-cleavage kobs at 40 uM GlcN6P,glucosamine-6-phosphate [1],< 1e-05 s⁻¹
same,self-cleavage kobs at 640 uM GlcN6P,glucosamine-6-phosphate [5],< 1e-05 s⁻¹
same,self-cleavage kobs at 10000 uM GlcN6P,glucosamine-6-phosphate [3],< 1e-05 s⁻¹
AUAAAACCGCCAGAACUACAGAAAUGUAGUUGACGAGGAGGAGGUUUAUCGAAUUUUCGGCGUAUGCCUCCAAA,self-cleavage kobs at 40 uM GlcN6P,glucosamine-6-phosphate [1],< 1e-05 s⁻¹
same,self-cleavage kobs at 640 uM GlcN6P,glucosamine-6-phosphate [5],< 1e-05 s⁻¹
same,self-cleavage kobs at 160 uM GlcN6P,glucosamine-6-phosphate [4],< 1e-05 s⁻¹
same,self-cleavage kobs at 2500 uM GlcN6P,glucosamine-6-phosphate [2],< 1e-05 s⁻¹
same,self-cleavage kobs at 10000 uM GlcN6P,glucosamine-6-phosphate [3],< 1e-05 s⁻¹
AUAAAACCGCCAGAACUACAGAAAUGUAGUUGACGAGGAGGAGGUUUAUCGAAUUUUCGGCGGAUACCUCCAAA,self-cleavage kobs at 40 uM GlcN6P,glucosamine-6-phosphate [1],< 1e-05 s⁻¹
same,self-cleavage kobs at 640 uM GlcN6P,glucosamine-6-phosphate [5],< 1e-05 s⁻¹
same,self-cleavage kobs at 2500 uM GlcN6P,glucosamine-6-phosphate [2],< 1e-05 s⁻¹
same,self-cleavage kobs at 10000 uM GlcN6P,glucosamine-6-phosphate [3],< 1e-05 s⁻¹
AUAAAACCGCCAGAACUACAGAAAUGUAGCUGACGAGGAGGAGGUUUAUCGAAUUUUCGGCGGAUGCCUCCAAA,self-cleavage kobs at 40 uM GlcN6P,glucosamine-6-phosphate [1],< 1e-05 s⁻¹
same,self-cleavage kobs at 640 uM GlcN6P,glucosamine-6-phosphate [5],< 1e-05 s⁻¹
same,self-cleavage kobs at 160 uM GlcN6P,glucosamine-6-phosphate [4],< 1e-05 s⁻¹
same,self-cleavage kobs at 2500 uM GlcN6P,glucosamine-6-phosphate [2],< 1e-05 s⁻¹
same,self-cleavage kobs at 10000 uM GlcN6P,glucosamine-6-phosphate [3],< 1e-05 s⁻¹
AUAAAACCGCCAGAACUACAGAAAUGUAGGUGACUAUGAGGAGGUUUAUCGAAUUUCCGGCGGAUGCCUCGAAA,self-cleavage kobs at 40 uM GlcN6P,glucosamine-6-phosphate [1],< 1e-05 s⁻¹
same,self-cleavage kobs at 10000 uM GlcN6P,glucosamine-6-phosphate [3],< 1e-05 s⁻¹
AUAAAACCGCCAGAACUACAGAAAUGUAGUCGACGAGGAGGAGGUAUAUCGAAGUUUCGGCGGAUGCCUCCAAA,self-cleavage kobs at 40 uM GlcN6P,glucosamine-6-phosphate [1],< 1e-05 s⁻¹
same,self-cleavage kobs at 10000 uM GlcN6P,glucosamine-6-phosphate [3],< 1e-05 s⁻¹
AUAAAACCGCCAGAACUACAGAAAUGUAGUGCACGAGGAGGAGGUUUAUCGAAUUUUCGGCGGAUGCCUCCAAA,self-cleavage kobs at 40 uM GlcN6P,glucosamine-6-phosphate [1],< 1e-05 s⁻¹
AUAAAACCGCCAGAACUACAGAAAUGUAGUUGACGAGGAGGAGGUUUAACGAAUUUUCGGAGGAUGCCUCCAAA,self-cleavage kobs at 40 uM GlcN6P,glucosamine-6-phosphate [1],< 1e-05 s⁻¹
same,self-cleavage kobs at 640 uM GlcN6P,glucosamine-6-phosphate [5],< 1e-05 s⁻¹
AUAAAACCGCCAGAACUACAGAAAUGUAGUUGACGAGGAGGAGGUUUAGCGAAUUUUCGGCGGAUGCCUCCAAA,self-cleavage kobs at 40 uM GlcN6P,glucosamine-6-phosphate [1],< 1e-05 s⁻¹
same,self-cleavage kobs at 160 uM GlcN6P,glucosamine-6-phosphate [4],< 1e-05 s⁻¹
AUAAAACCGCCAGAACUACAGAAAUGUAGUUGACGAGGAGGAGGUUUAUCGAAUAUUCGGCGGAUGCCUCCAAA,self-cleavage kobs at 40 uM GlcN6P,glucosamine-6-phosphate [1],< 1e-05 s⁻¹
same,self-cleavage kobs at 640 uM GlcN6P,glucosamine-6-phosphate [5],< 1e-05 s⁻¹
same,self-cleavage kobs at 160 uM GlcN6P,glucosamine-6-phosphate [4],< 1e-05 s⁻¹
AUAAAACCGCCAGAACUACAGAAAUGUAGUUGACGAGGAGGAGGUUUAUCGAAUUUUCGGCGGAUGCCGCCAAA,self-cleavage kobs at 40 uM GlcN6P,glucosamine-6-phosphate [1],< 1e-05 s⁻¹
same,self-cleavage kobs at 2500 uM GlcN6P,glucosamine-6-phosphate [2],< 1e-05 s⁻¹
AUAAAAUCGCCUGAACUACAGAAAUGUAGUUGACGAGGAGGAGGUUUAUCGAAUUUUCGGCGGAUGCCUCCAAA,self-cleavage kobs at 40 uM GlcN6P,glucosamine-6-phosphate [1],< 1e-05 s⁻¹
same,self-cleavage kobs at 640 uM GlcN6P,glucosamine-6-phosphate [5],< 1e-05 s⁻¹
same,self-cleavage kobs at 160 uM GlcN6P,glucosamine-6-phosphate [4],< 1e-05 s⁻¹
same,self-cleavage kobs at 2500 uM GlcN6P,glucosamine-6-phosphate [2],< 1e-05 s⁻¹
same,self-cleavage kobs at 10000 uM GlcN6P,glucosamine-6-phosphate [3],< 1e-05 s⁻¹
AUAAAAUCGCCAGUACUACAGAAAUGUAGUUGACGAGGAGGAGGGUUAUCGAAUUUUCGGCGGAUGCCUACAAA,self-cleavage kobs at 40 uM GlcN6P,glucosamine-6-phosphate [1],< 1e-05 s⁻¹
same,self-cleavage kobs at 10000 uM GlcN6P,glucosamine-6-phosphate [3],< 1e-05 s⁻¹
AUAAAAUCGCCAGUACUACAGAAAUGUAGUUGACGAGGAGGAGGUAUAUCGAAUUGUCGGCGUAUGCCUCCAAA,self-cleavage kobs at 40 uM GlcN6P,glucosamine-6-phosphate [1],< 1e-05 s⁻¹
same,self-cleavage kobs at 10000 uM GlcN6P,glucosamine-6-phosphate [3],< 1e-05 s⁻¹
AUAAAAUCGCCAGAUCUACAGAAAUGUAGUUGACGAGGAGGAGGUUUAUCGAAUUUUCGGCGGCUGCCUCCAAA,self-cleavage kobs at 40 uM GlcN6P,glucosamine-6-phosphate [1],< 1e-05 s⁻¹
same,self-cleavage kobs at 10000 uM GlcN6P,glucosamine-6-phosphate [3],< 1e-05 s⁻¹
AUAAAAUCGCCAGAACUACAGAAAUGUAGUUGACGAGGCGGAGGUUUAUCGAAUUUUCCGCGGAUGCCUCCAAA,self-cleavage kobs at 40 uM GlcN6P,glucosamine-6-phosphate [1],< 1e-05 s⁻¹
same,self-cleavage kobs at 10000 uM GlcN6P,glucosamine-6-phosphate [3],< 1e-05 s⁻¹
AUAAAAUCGCCAGAACUACAGAAAUGUAGUUGACGAGGUGUAGGUUUAUCGAAUUUUCGGCGGAUGCCUCCAAA,self-cleavage kobs at 40 uM GlcN6P,glucosamine-6-phosphate [1],< 1e-05 s⁻¹
same,self-cleavage kobs at 10000 uM GlcN6P,glucosamine-6-phosphate [3],< 1e-05 s⁻¹
AUAAAAUCGCCAGAACUACAGAAAUGUAGUUGACGAGGAGGGGGUUUAUCGAAUUUUCGGCGGAUGCCUCCAAA,self-cleavage kobs at 40 uM GlcN6P,glucosamine-6-phosphate [1],< 1e-05 s⁻¹
same,self-cleavage kobs at 640 uM GlcN6P,glucosamine-6-phosphate [5],< 1e-05 s⁻¹
same,self-cleavage kobs at 160 uM GlcN6P,glucosamine-6-phosphate [4],< 1e-05 s⁻¹
same,self-cleavage kobs at 2500 uM GlcN6P,glucosamine-6-phosphate [2],< 1e-05 s⁻¹
same,self-cleavage kobs at 10000 uM GlcN6P,glucosamine-6-phosphate [3],< 1e-05 s⁻¹
AUAAAAUCGCCAGAACUACAGAAAUGUAGUUGACGAGGAGGUGGUUUAUCGAAUUUUCGGCGGAUGCCUCCAAA,self-cleavage kobs at 40 uM GlcN6P,glucosamine-6-phosphate [1],< 1e-05 s⁻¹
same,self-cleavage kobs at 640 uM GlcN6P,glucosamine-6-phosphate [5],< 1e-05 s⁻¹
same,self-cleavage kobs at 2500 uM GlcN6P,glucosamine-6-phosphate [2],< 1e-05 s⁻¹
same,self-cleavage kobs at 10000 uM GlcN6P,glucosamine-6-phosphate [3],< 1e-05 s⁻¹
